# Reference: PubChem BioAssay AID686979 (National Center for Advancing Translational Sciences (NCATS), 2013)
# Several values for one entry are separate records, joined by “and”; a condition that tells them apart may be missing. Equal values may be shown once. Hit rate of the full screen: of about 420,000 compounds, about 50,000 (12%) were called active. Inconclusive means that the source gave no clear call. Such entries were picked first, then a sample of the others. Calls come from the whole dose curve; as a rule, active = well fitted inhibition curve with a large enough effect; inconclusive = small, poorly fitted or top-dose-only effect; inactive = flat fitted curve, though single readings scatter. Potencies of inconclusive entries are doubtful fits and often do not repeat.
# Test: qHTS for Inhibitors of human tyrosyl-DNA phosphodiesterase 1 (TDP1): qHTS in cells in presence of CPT; note: nearly all actives have a fitted effect of over 55% in size
# Details: chicken DT40 Tdp1-/-;hTDP1 cells + 20 nM CPT, ATP luminescence, 48 h; activity change, negative = growth inhibition: at 46.2 µM (top of the series) unless noted
# How it was run: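 Chicken DT40 Tdp1-/- cells stably complemented with human TDP1 were seeded at 400 cells/well in medium containing 20 nM camptothecin, exposed to pin-transferred compounds, and grown at 37 °C for at least 48 hr. Viability was read as ATP luminescence.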
# % is set by controls: 0 for no effect and ±100 for the full control effect; potency is the fitted concentration of half-maximal effect; tags give direction and shape of the fitted curve.
SMILES,Potency,"activity change, negative = growth inhibition"
CCc1ccc(CN2CCC(Oc3ccc(C(=O)N4CCCCC4)cc3)CC2)cc1,"inconclusive: 29.1 µM [inhibitor, single point]",
CCN(CC)c1ccc(NC(=O)c2cc(C)nc3c2c(C)nn3-c2cccc(F)c2)c(C)c1,"inconclusive: 18.4 µM [inhibitor, single point]",
Cc1ccc(Cl)cc1NC(=O)CSc1ccc(C(=O)O)cn1,,inactive: -28.5%
O=C1CC(N2CCC(c3nc4ccccc4s3)CC2)C(=O)N1 (stereo not given),,inactive: -7.01%
CCN(Cc1ccccc1)Cc1c(O)ccc2c(=O)c(-c3ccccc3)c(C(F)(F)F)oc12,"inconclusive: 29.1 µM [inhibitor, single point]",
Cc1cccc(-n2nnnc2SCC(=O)c2cc(C)n(Cc3ccco3)c2C)c1,"inconclusive: 29.1 µM [inhibitor, single point]",
CCOc1ccccc1CNCc1c(C(=O)O)c(C)n(Cc2ccc(Cl)cc2)c1C,"inconclusive: 20.6 µM [inhibitor, single point]",
O=C(Nc1nnc(C2CC2)s1)C1COc2ccccc2O1 (stereo not given),,inactive: 2.51%
O=Nc1ccc(NO)c2ccccc12,"inconclusive: 20.6 µM [inhibitor, single point]",
O=C(OCC(=O)N1CCCCC1)c1c[nH]c2ccccc12,,inactive: -16.8%
NC(=O)CSc1nnc(-c2cccc(S(=O)(=O)N3CCCCC3)c2)o1,,inactive: 1.91%
O=C(NC1CCCC1)C1c2ccccc2OCC(=O)N1Cc1ccc2c(c1)OCO2 (stereo not given),,inactive: -7.27%
Cc1ccc2c(c1)nnn2C1CCN(CC(=O)Nc2ccccc2N2CCOCC2)CC1,active: 18.4 µM,
COc1ccc(C(=O)Nc2cc(C(C)C)c(O)c(S(=O)(=O)c3ccc(Cl)cc3)c2C)cc1,"inconclusive: 13 µM [inhibitor, partial curve]",
O=C(N=c1ccn(-c2nc3ccccc3nc2NS(=O)(=O)c2ccc(Cl)cc2)cc1)c1cccs1,"inconclusive: 29.1 µM [inhibitor, single point]",
Cc1nc(N2CCCCC2)sc1C(=O)c1ccc(SCCO)c([N+](=O)[O-])c1,"inconclusive: 23.1 µM [inhibitor, single point]",
Cc1cccc2nc(Cn3c(=O)n(-c4ccccc4)c(=O)c4c5c(sc43)CCC5)cc(=O)n12,"inconclusive: 29.1 µM [inhibitor, single point]",
COc1ccc(CCNC(=O)c2c(Nc3ccccc3C)sc(C(=O)c3ccccc3)c2N)cc1OC,"inconclusive: 13 µM [inhibitor, single point]",
Cc1c(C(=O)Nc2ccc3c(c2)OCCO3)sc2ncnc(N3CCCCC3C)c12 (stereo not given),"inconclusive: 18.4 µM [inhibitor, partial curve, poor fit]",
COc1ccccc1OCCCn1c(C2CC(=O)N(c3ccc(F)cc3)C2)nc2ccccc21 (stereo not given),"inconclusive: 25.9 µM [inhibitor, single point]",
Cc1nc(N2CCCCC2)c2ccsc2n1,"inconclusive: 18.4 µM [inhibitor, single point]",
O=C(OCCN1C(=O)c2ccccc2C1=O)c1cc(S(=O)(=O)N2CCOCC2)ccc1Cl,,inactive: 8.92%
CCOC(=O)c1nn(-c2cccc(Cl)c2)c2nc(CC(C)C)c(C#N)c(=O)n12,"inconclusive: 16.4 µM [inhibitor, partial curve]",
O=C(Cn1c(=O)c(=O)n(Cc2ccccc2)c2ccc(Cl)cc21)Nc1cccc(F)c1,"inconclusive: 18.4 µM [inhibitor, single point]",

SMILES,Potency,"activity change, negative = growth inhibition"
COc1ccccc1NC(=O)Nc1c(C)nn(C)c1C,,inactive: 8.9%
COc1ccc(CCNC(=O)COC(=O)c2ccccn2)cc1,,inactive: 0.875%
COC(=O)c1cc(NC(=O)c2cc(-c3ccc(C(F)(F)F)cc3)oc2C(F)(F)F)ccc1N1CCOCC1,"inconclusive: 20.6 µM [inhibitor, single point]",
COc1ccc(C(c2nnnn2C2CCCC2)N2CCN(c3ccccc3)CC2)cc1 (stereo not given),"inconclusive: 29.1 µM [inhibitor, single point]",
CCOc1ccccc1OCCC(=O)N1CCN(S(=O)(=O)c2ccccc2[N+](=O)[O-])CC1,"inconclusive: 23.1 µM [inhibitor, single point]",
CCCN(C(=O)c1c(C)oc2ncn(CC(C)C)c(=O)c12)c1ccccc1C,"inconclusive: 8.2 µM [inhibitor, partial curve, poor fit]",
COc1ccc(-c2nn(C)c3sc(C(=O)Nc4cc(OC)c(OC)c(OC)c4)cc23)cc1OC,active: 18.4 µM,
C(=C\c1ccnc2ccccc12)/c1ccc(N(Cc2ccccc2)Cc2ccccc2)cc1,active: 12.6 µM,
O=C(O)CSc1nnc(CNc2ccc(Cl)cc2)n1Cc1ccccc1,,inconclusive: -33% [inhibitor]
COc1ccc(S(=O)(=O)N2CCN(C(=O)c3cc(C)oc3C)CC2)cc1,,inactive: 0.208%
O=C(NC(=S)Nc1ccc(N2CCCC2)cc1)c1ccccc1[N+](=O)[O-],,inactive: -8.62%
Cc1cc(C)nc(-c2cccc3c2OC(CNC(=O)C2CCOC2)C3)n1 (stereo not given),,inactive: 1.23%
COc1ccc(CCC(C)N2CCC(CO)(Cc3ccccc3)CC2)cc1 (stereo not given),,inconclusive: -33.8% [inhibitor]
Cc1ccc(NS(=O)(=O)c2ccc(C3CCCCC3)cc2)cc1,"inconclusive: 29.1 µM [inhibitor, single point]",
Cc1ccn(CCC(=O)N2CCOc3ccc(C(O)C4CCCCC4)cc3C2)n1 (stereo not given),"inconclusive: 18.4 µM [inhibitor, single point]",
CCOC(=O)C(=O)c1c(-c2ccc(C)cc2)nc2ccccn12,active: 23.1 µM,
CC(=O)N1CCN(c2c(F)c(F)c(C(F)(F)F)c(F)c2F)CC1,"inconclusive: 16.4 µM [inhibitor, partial curve]",
COc1cc(C2C(C(=O)c3ccc(C)o3)=C(O)C(=O)N2CCN2CCOCC2)ccc1OCCC(C)C (stereo not given),,inactive: -3.3%
CC(=O)N1CCc2ccc(S(=O)(=O)N3CCN(C)CC3)cc21,,inactive: -12.6%
CCCCC(CC)CNC(=O)c1ccc(Cn2c(=O)[nH]c3cc(OC)c(OC)cc3c2=O)cc1 (stereo not given),"inconclusive: 29.1 µM [inhibitor, single point]",
CCOc1ccccc1NC(=O)CSc1nnc(CC)c(CC)n1,"inconclusive: 29.1 µM [inhibitor, single point]",
CCOC(=O)Cc1nn(C)c(=O)c2ccccc12,"inconclusive: 13 µM [inhibitor, partial curve, poor fit]",
CC(=O)Nc1cncc(-c2ccccc2CO)n1,,inactive: 17.6%
CN(CCOc1ccccc1)CC(=O)Nc1ccc(Br)cc1F,"inconclusive: 16.4 µM [inhibitor, single point]",

SMILES,Potency,"activity change, negative = growth inhibition"
CCC(C(=O)NCc1ccco1)N(C(=O)CNS(=O)(=O)c1ccc(F)cc1)c1ccccc1F (stereo not given),,inactive: -20.8%
CCCN1C(=O)/C(=C\C=C2/C=CN(CC)c3ccccc32)SC1=S,"inconclusive: 14.6 µM [inhibitor, partial curve, poor fit]",
O=C(c1ccco1)N1N=C(c2ccccc2O)CC1c1cccs1 (stereo not given),,inactive: -26.9%
CCc1cc2c(NCCC(=O)O)nc(C)nc2s1,,inactive: -3.56%
COc1nc(N/N=C/c2ccc(-c3ccccc3[N+](=O)[O-])o2)nc(N2CCOCC2)n1,,inconclusive: -31.2% [inhibitor]
COc1cccc(CN2CCCN(Cc3ccc(F)cc3)S2(=O)=O)c1,"inconclusive: 25.9 µM [inhibitor, partial curve]",
CCCCC(=O)O[C@]1(C(=O)CO)[C@H](C)C[C@H]2[C@@H]3CCC4=CC(=O)C=C[C@]4(C)[C@@]3(F)[C@@H](O)C[C@@]21C,active: 18.8 µM,
COc1ccc(C2C(=O)c3ccccc3C2=O)cc1OC,,inconclusive: -30.3% [inhibitor]
Cc1ccc(-n2c(SCC(=O)NCC3CCCO3)nc3ccccc3c2=O)cc1 (stereo not given),"inconclusive: 20.6 µM [inhibitor, single point]",
COc1cc(/C=N/NC(=O)/C(=C\c2ccc([N+](=O)[O-])cc2)NC(=O)c2ccccc2)cc(OC)c1O,,inactive: -29.9%
Cc1ccc(O)c(NC(=O)C2=CC(c3cccs3)=NS(=O)(=O)N2C)c1,"inconclusive: 23.1 µM [inhibitor, single point] and inconclusive: 32.6 µM [inhibitor, single point]",
CCCS(=O)(=O)c1nc(S(=O)(=O)c2ccc(C)cc2)c(N2CCC(C(N)=O)CC2)s1,"inconclusive: 29.1 µM [inhibitor, single point]",
CCOc1ccc(NC(=O)COc2ccc(S(=O)(=O)N3CCCC3)cc2)cc1,,inconclusive: -33.4% [inhibitor]
COC(=O)c1nnn(-c2nonc2N)c1CSCCO,,inactive: 1.18%
Cc1[nH]cnc1C(=O)N/N=C/c1c(Cl)cccc1Cl,"inconclusive: 20.6 µM [inhibitor, single point]",
COc1ccc(NC2CCCN(C(=O)CCc3ccncc3)C2)cc1OC (stereo not given),,inactive: -18.5%
COc1ccc(OC)c(CN2CCN(C(=O)c3ccco3)CC2)c1,"inconclusive: 20.6 µM [inhibitor, single point]",
CC(C)N(Cc1nccn1C)C(=O)c1cc(COc2ccc(F)cc2Cl)on1,active: 14.6 µM,
CC#CC[N+](C)(C)CCCCCCCC,active: 11.6 µM,
O=C(COc1cccc2cccnc12)N/N=C/c1cccn1-c1ccc(F)cc1,"inconclusive: 20.6 µM [inhibitor, single point]",
COC(=O)[C@]12CCCCC=C1N(Cc1ccco1)C(=O)[C@H](CC(=O)NCc1cccc(C(F)(F)F)c1)C2,"inconclusive: 23.1 µM [inhibitor, single point]",
Cn1cc(S(=O)(=O)N2CCc3ccccc32)cc1C(=O)Nc1ccc(C(F)(F)F)cc1,"inconclusive: 29.1 µM [inhibitor, single point]",
